First the molecules themselves.
B1: TPR 5TU (parent)
chain: GGAUCUUCUCGAUCUAACAAAAAAGACAAAUCUGCCACAAAGCUUGAGAGCAUCUUCGGAUGCAGAGGCGGCAGCCUUCGGUGGCGCGAUAGCGCCAACGUUCUCAACUAUGACACGCAAAACGCGUGCUCCGUUGAAUGGAGUUUAUCAUG

Variants at the background level are over-represented here.

In this data set the parent is B1. The data set can be described thus: polymerase ribozyme fitness, log enrichment relative to wild type (log ratio); higher = more active; in vitro selection for triplet polymerase activity. The essentials:
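The heterodimeric triplet polymerase ribozyme's subunits were each mutagenized into PCR-built libraries and transcribed. Every library was selected once, in triplicate, by annealing with a biotinylated primer, the partner subunit and triplets, incubating frozen at −7 °C, gel-excising extended constructs, capturing on streptavidin beads and running RT-PCR. Input and output libraries were Illumina-sequenced, with genotypes kept only at ≥10 input reads and ≥1 read per output. Fitness, from inverse-variance-weighted replicate averages, is the base-2 logarithm of genotype enrichment over wild-type enrichment.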
Turning to GGAUCUUCUCUAUCUAACAAAACAGACAAAUCUGCCACAAAGCUUGAGAGCAACUUCGGAUGCAGAGGCGGCAGCCUUCGGUGGCGCGAUAGCGCUAACGUUCUCAACUAUGACACGCAAAACGCGUGCUCCGUUGAAUGGAGUUUAUCAUA, the “polymerase ribozyme fitness (log ratio)” value is at most -4.2.
GGAUCUUCUCUCUCUACCAAAUAAGACAAAUCUGCCACAAGGCUUGAGAGCAUCUUCGGAUGCAGAGGCGGCGGCCUACGGUGGCGCGAUAACGCCGACGUUCUCAACUAUGACACGCAAAACGCGUGCUCCGUUGAAUGGAGUUUAUCAUG: the “polymerase ribozyme fitness (log ratio)” value is at most -4.2.
Next, GGAUCUUCUCCAUCUAACAAAAAAGACAAAUCUGUCACAAAGCUUGAGCGCAUCUUCGGAUGCAGAGGCGGCAGCCUUCGGUGGCGCGAUAGCGCUAACGUUCUCAACUAUGACACGCAAAACGCGUGCUCCGUUGAAUGGAGUUUAUCAUG: at most -4.2; GGAUCUUCUCCAUCUAACAAAAAAGACAAAUCUGCCACAAAGCUUGAGAGCAACUUCGGAUGCAGAGGCGGCAGCCUUCGGUGGCGCGAUGGCGUCUACGUUCUCAACUAUGACACGCAAAACGCGUGCGCCGUUGAAUGGAGUUUAUCAUG: at most -4.2.
Regarding GGAUCUUCUCUAUCUAACAAAAAUGACAAAUCUGCCACAAAGCUUGAGAGCAUCUUCGGAUGCAGAGGCGGUAGCCUUCGGUGGUGCGAAAGCGCCAACGUUCUCAACUAUGACACGCAAAACGCGUGCUCCGUUGAAUGGAGUUUAUCAUG, the “polymerase ribozyme fitness (log ratio)” value was at most -4.2.
Turning to GGAUCUUCUCUAUCUAACAAAAAAGCCUAAUCUGCCACAAAGCUUGAGAACAUCUUCGGAUGCAGUGGCGGCAGCCUUCGGUGGCGCGAUAGCGCCAACGUUCUCAACUAUGACACGCAAAACGCGUGCUCCGUUGAAUGGAGUUUAUGAUG, the “polymerase ribozyme fitness (log ratio)” value was at most -4.2.
Next, GGAUCUUCUCCAUCUAACAAAAAAGACAAAUCUGCCACAAAGCUUGAGAGCAUCUUCGGAUACAGAGGCGGCAGCCUUCGGUGGCGGGAUAGCGCCAACGUUCUCAACUAUGACACGCAAAACGCGUGCUCCGUUGAAUGGAGUUUAUCAUG: at most -4.2; GGAUCUUCUCCAUCAAACAAAAAAGACAAAUCUGCCACAAAGCUUGAGAGCAUCUUCGGAUGCAGAGGCGGCAGCCUUCGGUGGCGAGAUAGCGCCAACGUUGUCGACUAUGACACGUAAAACGCGUGCUCCGUUGAAUGGAGUUCAUCAUG: at most -4.2.
GGAUCUUCUCUAUCUAACAAAAAAGUCAAAUCUGCCACAAAGCUUGAGAGCAUCUUCGGAUGCAGAGGCGGCAGCCUUCGGUAGCGCGAUAGCGCCAACGUUCUCAACUAUGACACGCAAAACGCGUGCUCCGUUGAAUGGAGUUUAUCAUG: the “polymerase ribozyme fitness (log ratio)” value was -4.06.
The same measure for GGAUCUUCUCCAUCUAACAAAAAAGACAAAUCUGCCACAAAGCUUGAGAGCAUCUUCGGAUGCAGAGGCGGCAGCCUUCGGUAGCGCGAUAGCGCCAACGUUCUCAACUAUGACACGCAAAACGCGUGCUCCGUUGAAUGUAGUUUAUCAUG: -0.379; for GGAUCUUCUCUAUCUAACAAAAUAGACAAAUCUGCCACAAAGCUUGAGAGCAUCUUCGGAUGCAGAGGCGGCAGCCUUCGGUGGCGCGAUAGCGCCAACGUUCUCAACUAUGACACGCAAAACGCGUGCUCCGUUGAAUGGAGUUUAUCAUG: at most -4.2.
Next, GGAUCUUCUCUAUCUAACAAAUAAGACAAAUCUGGCACAAAGCUUGAGAGCAUCUUAGGAAGCAGAGGCGGCAGCCUUCGGUGGCGCGAUAGCGCCAACGUUCUCAACUAUGGCACGCAAAACGCGUGCUCCGUUGAAUGGAGUUUAUCAUG: at most -4.2.
The same measure for GGAUCUUCUCUAUCUAACAAAAAAGACAAAUCUGCCACAUACCUUGAGAGCAUCUUCGGAUGCAGAGGCGGCAGCCUUCGGUGCCGCGAUAGCGCCAACUUUCUCAUCUAUGACACGCAAAACGCGUGCUCCGGUGAAUGGAGUUUAUCAUG: at most -4.2; for GGAUCUUCUCUAUCUAACAAAGAAGACAAAUCUGCCACAAAGCUUGAGAGCAUUUUCGGAUGCAAAGGCGGCAGCUUUCGGUGGCGCGAUAGCGCCAUCGUUGUCAACUAUGACACGCAAAACGCGUGCUCCGUUGAAUGGAGGUUAUCAUG: at most -4.2.
On to GGAUCUUCUCCAUCUAACAAAAAAGACAAAUCUGCCACAAAGCUUGAGAGCAUCUUCGGAUGCAGAGGCGGCAGGCGUCGGUGGUGCGACAGCGCCAACGUUCUCAACUAUGACACGCAAAACGCGUGCUCCGUUGAAUGGAGUUUAUCAUG, for which the “polymerase ribozyme fitness (log ratio)” value is at most -4.2.
For GGAUCUUCUCCAUCUAACAAAAAAGACAAAUCUGCCACAAAGCUUGAGAGCAUCUUCGGAUGCAGAGGCGGCAGCCUUCGGUGGCGCGAUAGUGCCAACGUUCUCAACUAUGACACGCAAAACGCGUGCUCCGUUGCAUGGAGUUUAUCAUG, the “polymerase ribozyme fitness (log ratio)” value is at most -4.2.
Next, GGAUCUUCUCUAUCUAUCAAAAAUGACCAAUCUGCCACAAAGCUUGAGAGCAUCUUCGGAUGCAGAGGCGGCAGCCUUCGGUGGCGCGCUUGCUCCAAAGAUCUCAACUAUGACACGUAAAACGCGUGCUCCGUUGCAUGGAGUUUAUCAUG: at most -4.2.
Next, GGAUCUUCUCCAUCUAACAAAAAAGACAAAUCUGCCACAAAGCUUGAGAGCAACUUCCGAUGCAGAGGCGGCUGCCUUCGGUGGCGCGAUAGCGACAACGUUCUCAACUAUGACACGCAAAACGCGUGCUCCGUUGAAUGGAGUUUAUCAUG: at most -4.2.
As to GGAUCUUCUCUAUCUAGCAAAAAAGACAAAUCUGCCACAAAGCUUGAGAGCAUCUUUGGAUGUAGAGGCGGCAGCCUUCGAGGGCGCGAUAGCGCCAACGUUCUCAACUAUGACACGCAAAACGCGUGCUCCGUUGAAUGGAGUUUAUCAUG, the “polymerase ribozyme fitness (log ratio)” value is -1.64.
Next, GGAUCUUCUCCAUCUAACAAAAAACACAAAUCUGUCACAAUGCUUGAGAGCAUCUUCGGAUGAAGAGACGGCAGCCUUCGGUGGCGGGAUAGCGCCAACGUUCUCAACUAUGACACGCAAAACGCGUGCUCCGUUGAAUGGACUUUAUCAUG: at most -4.2; GGAUCUUCUCUAUCUAACCAAAAAGACAAAUCUACCACAAAGCUUGAGAGCAUCUUCGGAAGCAGAGGCGGCAGCCUGCGGUGGCGCGAUAGCAUCAACGUUCUCAACUAUGACACGCAAAACGCGUGCUCCGUUGAAUGGAGCUUAUCAUG: at most -4.2.
Next, GGAUCUUCUCUAUCUAACAGAAAAGACAAUUCUGCCACAAAGCUUGAGACCAUCUUCGGAUGCAGAGGCGGCAGCCUUCGGUGUCGCGAUAGCGCCAACGUUCUCAACUAUGACACGCAUAACGCGUGCUCCGUUGAAUGGAGUUUAUCAUG: at most -4.2.
Next, GGAUCUUCUCCAUCUAACAAAAAAGACAAAUCUGCUACAAAGCUUGAGAGCAUCUUCGGAUGCAGAGGCGGCAGCCUCCGGUGGGGCGAUAGCGCCAACGUUCUCAACUAUGACACGCACAAAACGUGCUCCGUUGAAUGGAGUUUAUCACG: at most -4.2; GGAUCUUCUCUAUCUAACCAAAAAGACAAAUCUGCCACAAAGCUUGAGAGCAUCAUCGGAUGCAGAGGCGACAGCCUUCGGUGGCGCGAUCGCGCCAACAUUCUCAACGAUGACACGCAAAUCGCGUGCUCCGUUGAAUGGAGUUUAUCAUG: at most -4.2.
Regarding GGAUCUUCUCUAUCUAACAAUAAAGACAACUCUGCCACAAAGCUUGAGAGCAUCUUCGGAUGCAGAGGCGGCAGCCUUCGGUGGCGCCAUAGCGCCAACGUUCUCAACUAUGACACGCAAAACGCGUGCUCCGUUGAAUGGAGUUUAUCAUG, the “polymerase ribozyme fitness (log ratio)” value was at most -4.2.
Next, GGAUCUUCUCCAUCUAACAAAAAAGACAAAUCUGCCACAAAGCUUGAGAGCAUCGUCGGAUGCAGAGGCGGCAGCCUUCGGUGGCGCGAUAGCGCCAACGUUCUCAACCAUGACACGCAAAACGCGUGCUCCGUUGAAUGGAGUAUAUCAUG: at most -4.2; GGAUCUUCUCCAUCUAACAAAAAACACGAAUCUGCGACAAAGCUUGAGAGCAUCUUCGGAUGCAGAGGCGGCAGUCUUCGGUGGCGCGAUAGCGCUAACGUUCUCAACUAUGACUCGCAAAUCGCGUGCUCCGUUGAAUGGAGUUUAUCAUG: -3.98; GGAUCUUCUCCAUCUAACAAAAAAGACAAAUCUGCCACAAAGCUUGAGAACAUCUUCGGAUGCAGAGGCGGCAGCCUUCGGUGGCGCGAUAUCGCCAACGUUCUCAACUAUGACACGCAAAACGCGUGCUCCGUUGAAUGGAAUUUAUCAUG: -4.01.
The same measure for GGAUCUUCUCUAUCUACCAAAAAAGACAAAUCUGCCACAAAGCUUGAGAGCAUCAUCGGAUGCAGAGGCGGCAGCCUUCGGUGGCGCGAUAGCGCCAACGUUCUCAACUAUGACAAGCAAUACGUGUGCUCCGUUGAAUGGUGUUUAUCAUG: at most -4.2; for GGAUCUUCUCUAUCUAACAAAAAAGGCAAGUCUGCCACAAAGCUUGAGAGCAUCUUCGGAUGCAGAGGCGGCUGCCUUCGGUGGCGCGAUAGCGCCAAUGUUCUCAACUAUGACACGCAAAACGCGUGCUCCGUUGCAUGCAGUUUAUCAUG: at most -4.2; for GGAUCUUCUCUAUCUAACAAAAAAGACAAAUCUGCCACAUAGCUUGAGAGCAUCGUCGGAUGCAGAGGCGGCAGCCUUCGGUGGCGCGAUAGCGUCAACGUUCUGAACUAUGACAGGCAAAACGCGUGCUCCGUUGAAUGGAGUUUAUCAUG: at most -4.2.
Take GGAUCUUCUCUAUCUCACAAAAAAGACAAAGCUGCCACAAAGCUUGAGAGCAUCUUCGUAUGCAGAGGCGGCAGCCUUCGGUGGCGCGAUGGCGGCAACGUUCUCAACUAUGACACGCAAAACGUGUUCUCCGUUGAAUGGAGUUUAUCAUG: the “polymerase ribozyme fitness (log ratio)” value was at most -4.2.
For GGAUCUUCUCCAUCUAACAAAAAAGACAAAUCUGCCACAAAGCUUGAGAGCAUCUUCGGAUGCAGAGGCGGCAGCCUUCGGUGGCGCGAUAGUGCCAACGUUCUCAACUAUGACACGCAAAACGCGUGCUCCGUUUAAUGGAGUUUAUCAUG, the “polymerase ribozyme fitness (log ratio)” value was at most -4.2.
The same measure for GGAUCUUCUCCAUCUAACAAAAAAGACAAAUCUGCCACAAAGCUUGAGAGCAUCUUCGGAUGCAGAGGCGGCAGCCUUCGGUGGCGCGAUAGCGCGAACCGUCUCAACUCUGACACGCAAAACGCGUGCUCCGUUGAUUGGAGUUUAUCAUG: at most -4.2; for GGAUCUUCUCCAUCUAACAAAAAAGACAAAUCUGCUACAAAGCUUGAGAGCAUCUUAGGAUGCAGAGGCGGCAGCCUUCGGUGGCGCGAUAGCGCCAACAUUCUCAACUAUGACACGCAAAACGCGUGCUCCGUUGAAUGGAGUUUAUCAUG: at most -4.2; for GGAUCUUCUCUAUCUAACAAAAUAGACAAAUCUGCCACAAAGCUUGAGAGCAUCUUUGGAUGCAGAGGCGGCAGCCUUCGGUGGCACGAUAGCGCCAACGUUCUCAACUAUGACACGCAAAACGCGUGCUCCGUUGAAUGGAGUUUAUCAUG: at most -4.2.
The same measure for GGAUCUUCUCCAUCUAACAAAAAAGACAAAUCUGCCACAAAGCUUCAGAGCAUCUUUGGAUGCAGAGGCGGCAGCCUUCGGUGGUGCGAUAGCGCCAACGUUCUCAACUAUGACACGCAAAACGCGUGCUCCGUUGAAUGGAGUUUAUCAUG: -3.93; for GGAUCUUCUCUGUCUAACAAAAAAGACAAAUCUGCCACACAGCUUGAGAGCAUCUUCGGAUGCAGAGGCGGCGGCCUUCGGUGGCGGGAUAGCGCAAACGUUCUCAACUAUGACACGUAAAACGCGUGCUCCGUUGACUGGAGUUUAUCAUG: at most -4.2.

These data come from the RNAGym collection of RNA variant scans (doi:10.1073/pnas.2313332121).
